Results on 73 sequences are retold here after paper PMC10726135.

Some of the results follow. At the low end of the ranking the order means little. Measured with an extract: partners may take part in the binding.

The assay has as its target T1, HNF4alpha8 (COS-7 nuclear extract) (UniProt P41235-5).
T1 sequence: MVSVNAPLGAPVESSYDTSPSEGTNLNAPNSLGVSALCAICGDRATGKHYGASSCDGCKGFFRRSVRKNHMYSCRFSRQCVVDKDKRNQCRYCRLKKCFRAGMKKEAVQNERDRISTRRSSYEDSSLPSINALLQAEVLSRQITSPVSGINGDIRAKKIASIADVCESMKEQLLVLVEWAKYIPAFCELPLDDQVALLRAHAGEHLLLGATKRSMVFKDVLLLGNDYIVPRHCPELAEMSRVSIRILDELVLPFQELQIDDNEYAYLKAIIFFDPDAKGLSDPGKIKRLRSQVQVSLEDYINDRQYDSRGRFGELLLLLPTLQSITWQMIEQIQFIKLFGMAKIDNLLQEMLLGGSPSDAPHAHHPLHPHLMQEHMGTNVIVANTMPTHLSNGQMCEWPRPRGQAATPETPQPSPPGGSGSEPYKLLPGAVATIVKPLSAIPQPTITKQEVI
Briefly: protein-binding microarray. The note with it: COS-7 nuclear extract on double-stranded Agilent 4x180k PBM; binding buffer, salt, pH and temperature not given; high values mean tight binding; double strand, one strand shown; sequences stand for … in …GCCTAGGGAGATTAGAGTATCGGTCGA
As for TCTCAGGGAGTGCAAACTTCTTTGAAGAAG, the binding signal (log2 normalized intensity) was found to be 0.467. CACCCCCCAAGTAGAGAGCAATTATGCACC: the binding signal (log2 normalized intensity) is 3.57. Next, GGGACCTTGATGGCATTCTTGAGCTACCGC: -1.31; AGATATATCACCTGCCAGCTGTTATGAGTC: 0.0406. Take CCCTATCCCCAGATTCCAGGGGAGGGTAAG: the binding signal (log2 normalized intensity) is -1.31. Next, CATCTAAGGACAAACTTTGTCACTGCAAAT: 1.01; AACATGTAATCATTTGGGACAAAGTTCATC: 4.93; AGATGGTCAAAGGTTGATGGTATGTTTCAG: 3.86. Next, AGAAGCTGTTGGAAAGGGCACTGATAACCT: -1.27; TTAACTGAACCTAGATTCCAGGAAGAAAGA: -1.27; CGGCTGGGGATGAAGGGGGCGGGGGCGAAA: -1.1. For CTGGGAGATGAGCTCTGAACTAACAATTCT, the binding signal (log2 normalized intensity) is -1.28. Next, CCTCGGCCGGCCCGGCAGCCCTGCTCCCCG: -1.37; ATTGTGTCATTGGTATCCACAGAGTTCATA: 1.74. Next, CCAGGGCATTGCCGTTCAGGGCCACGGGAA: -1.39; CTTAGACCCCTGAATAGGTCTTGGAATGTG: 1.85. Next, ACAAGGAAAACAAGGTACAGAGAGTTTAAG: -1.36; GGCTGATTTCTCAGGAAGTGCTTGTTCCCT: 0.658; GGGTACACATGGCCGTAAAGATAAGAACGC: -1.4. As for TCCTTTTCATTCTTTAAGGACCACATCAAA, the binding signal (log2 normalized intensity) worked out at 0.958. As to ACACATCTTCCATCGGACTTTGATCTGCCA, the binding signal (log2 normalized intensity) stood at 6.96. Next, GCCTGGTCTGCACTCCAGGAAAGACGAGTG: 0.837; GTCCTTCCCAAGTCCTGCATGTGTTCACAC: 1.21. Next, GCCCCACACTCCTGGGCTGTATGTTCTAAC: 0.228; AGGAGGGATCTGGCAGGGGCGCGGCCTAAT: -1.1; GGACTTGGGACTCTGCAGACTGGTGCTATG: 3.25. Next, AATGATCTGACTCGGGTGTTCACAGGTGAC: 0.776.

Consider ATCGGTCTTTACACATCTGTTAGGAATGTC, for which the binding signal (log2 normalized intensity) was determined as 0.798.

Take ACCTGAGGCCAAGCAGCTGTGATGAGGCCA: the binding signal (log2 normalized intensity) was -1.39. Take CTAGCAAATCTGCCCAACCTTTGCCCCTGG: the binding signal (log2 normalized intensity) was 6.52. Next, TTTGTCTCAGGAACTTTGTTTGTGTTTCCC: 1.17; TTCAGGGTTAAAAGTTCTGCTGAGTATCCA: 0.669; TTGTACCCTTCTTTCCACCCTGTTGCACAA: 1.99. Regarding GAGTAGAGGTGACTTACATGCAGAGATACT, the binding signal (log2 normalized intensity) is -1.44. Next, TTGACCATTGTGTTAAAGGAATTCAGGACT: 0.91; GCAAAGTTCAACCCTGAATGTGTGCTGGCC: 1.12. Next, ATAAAGTTAAGACCTACATTAAGACCACCT: -1.31.

In the case of ACATTTTTGTCATCTTCACTTTTGTGGCCT, the binding signal (log2 normalized intensity) worked out at 1.95. For the sequence TAACTGCTGCATGTCATGACCTTCATCAAT, the binding signal (log2 normalized intensity) is 2.63. For AAACGCTGAAGTCTCAAAGTTCACCACTTT, the binding signal (log2 normalized intensity) amounted to 3.3. Consider GACTCCACAGTGGGGCAGATCACAAGCACC, for which the binding signal (log2 normalized intensity) was -1.43. As for TCTCATTCACACCCTCAGCTGATGGGTCTC, the binding signal (log2 normalized intensity) amounted to 0.876.

On to GGTTTGCTCTGCTACTGACCAGATGTTATT, for which the binding signal (log2 normalized intensity) was determined as 0.93. Next, CTTGGGGCTGATGTCTTTCTGGCTGGAGAG: 0.237; TTCCACCTGGAATGCACTTGTTCCGGATAG: 0.694. Next, CCCTTTCCTCATATTTTGCATACCAAGGGA: -0.00897; TGCACATTCCCTCCAGCAGGGGATGCCCTT: 2.84; TCACAGCTATTGTATCTATCTCTATGTCCA: 0.981.

Take CCCAGTTAACTGGACAAGGAGGCTGGGCTG: the binding signal (log2 normalized intensity) is -1.23. As to CAACAGGTATGCTCCAAAGATGATGCCTCA, the binding signal (log2 normalized intensity) was -1.1. As to TTGTGCAAATGGAAAATTGTAATCTTCAGC, the binding signal (log2 normalized intensity) is 0.118. Next, GGTGTGTTGCAACTTTGACTATAGCGTCTC: 0.867; TCTCTGCTTGCAATTTTTGTTCAGTCATTG: 0.587. Next, GCAGTGTGGGGACCTGGACTCCCAAGATGG: 0.0513; GAAGTTTGGCAATTACCCAACAGACTTTCC: -1.22. Next, CCAACAAGGCAGGAGATTCCACATTCCCTT: -1.32; ACCAAACCTGAAAAACCTCTCTCCAGGTAC: -1.1; CCCCCCTCACACTTTGGCTACTCAGTTTTT: 1.37. Turning to TGAAGTTCCAGAGCCTTCAAAGGAAAGCAG, the binding signal (log2 normalized intensity) is -0.981. For the sequence GGACTGTCCTTTGCTAGATTCTTTCTTCCT, the binding signal (log2 normalized intensity) was 0.57. Regarding CACAGAAGTGGACCTTCACCAGATACTGAA, the binding signal (log2 normalized intensity) amounted to 2.19. Turning to CCCAGATATCTCTGGTAAACAGCTGACAAT, the binding signal (log2 normalized intensity) was -1.15.

On to GTACCATTCATGGACAGCCTTGCCACATGG, for which the binding signal (log2 normalized intensity) is -1.27. Next, GACCAGGAGTTTGGGATCAGACACGTGGGA: 0.0935; TAGCCACTGCATGATAGGCCCATCTTCTTA: -1.42; CAATACTAGCAATAACCACAAGGGGGGAGC: -1.2.

On to CTCACAGGTTGTACTATGACCCAAACTTCA, for which the binding signal (log2 normalized intensity) was found to be 4.38. TGCTCCCTCCTGTGGTAATAAGTTGGTGGA: the binding signal (log2 normalized intensity) was found to be 1.32. With CAAGGTAACCCCCAACATTCTTTCCAGCTT, the binding signal (log2 normalized intensity) came out at 1.37.

Consider AGTACAGCTTTTTGTTTGTGTAAGTGTGGG, for which the binding signal (log2 normalized intensity) was determined as 1.89. Next, TGCCCAGCTGCATCCTGTGCCTTGGTAGAG: -0.926; ATGCCTTGTCTAGTTAAGTGTTCAGCAAAT: 0.962; GTGATAACCCCTATGTCTTCAGACTTCAAA: 1.84.
